# Data reported in the supplement of paper PMC8728848.
# The other results are listed elsewhere or left out.
# B1: Surfactant Protein D (Human); Neck + Carbohydrate Recognition Domain (NCRD) (Homo sapiens) (protein)
# chain: MLLFLLSALVLLTQPLGYLEAEMKTYSHRTMPSACTLVMCSSVESGLPGRDRDGREGPRGEKGDPGLPGAAGQAGMPGQAGPVGPKGDNGSVGEPGPKGDTGPSGPPGPPGVPGPAGREGALGKQGNIGPQGKPGPKGEAGPKGEVGAPGMQGSAGARGLAGPKGERGVPGERGVPGNTGAAGSAGAMGPQGSPGARGPPGLKGDKGIPGDKGAKGESGLPDVASLRQQVEALQGQVQHLQAAFSQYKKVELFPNGQSVGEKIFKTAQFVKPFTEAQLLCTQAGGQLASPRSAAENAALQQLVVAKNEAAFLSMTDSKTEGKFTYPTGESLVYSNWAPGEPNDDGGSEDCVEIFTNGKWNDIACGEKRLVVCEF
# Experiments:
# Assay in all cases: glycan array binding signal (z-score within array); higher = stronger binding
# Conditions in all cases: glycan notation: IUPAC condensed, linker removed; mutation: R343I
# [1] = biological target: Fuc(a1-2)[GalNAc(a1-3)]Gal(b1-4)[Fuc(a1-3)]GlcNAc
# Method in brief: (§1)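 Glycan array binding is given as a within-array Z-score, which can be read as non-binding when negative. The arrays, 3228 of them, came from the Consortium for Functional Glycomics database and were retained only where the protein sequence was available. Z-scores were averaged across arrays of the same protein sequence at different concentrations or buffers and across linkers.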
# [2] = biological target: Fuc(a1-2)[GalNAc(a1-4)]Gal(b1-4)GlcNAc
# Method in brief: as §1
# [3] = biological target: Fuc(a1-2)[GalNAc(b1-3)]Gal
# Method in brief: as §1
# Fuc(a1-3)GlcNAc = biological target: Fuc(a1-3)GlcNAc
# Method in brief: as §1
# [4] = biological target: Fuc(a1-3)[Gal(b1-4)]Glc6S
# Method in brief: as §1
# [5] = biological target: Fuc(a1-3)[Gal(b1-4)]GlcNAc
# Method in brief: as §1
# [6] = biological target: Fuc(a1-3)[Gal(b1-4)]GlcNAc(b1-2)Man(a1-3)[Fuc(a1-3)[Gal(b1-4)]GlcNAc(b1-2)Man(a1-6)]Man(b1-4)GlcNAc(b1-4)GlcNAc
# Method in brief: as §1
# [7] = biological target: Fuc(a1-3)[Gal(b1-4)]GlcNAc(b1-2)Man(a1-6)[Gal(b1-4)GlcNAc(b1-2)Man(a1-3)]Man(b1-4)GlcNAc(b1-4)GlcNAc
# Method in brief: as §1
# [8] = biological target: Fuc(a1-3)[Gal(b1-4)]GlcNAc(b1-3)Gal(b1-3)[Fuc(a1-4)]GlcNAc
# Method in brief: as §1
# [9] = biological target: Fuc(a1-3)[Gal(b1-4)]GlcNAc(b1-4)Gal(b1-4)[Fuc(a1-3)]GlcNAc
# Method in brief: as §1
# [10] = biological target: Fuc(a1-3)[Gal(b1-4)]GlcNAc(b1-4)Gal(b1-4)[Fuc(a1-3)]GlcNAc(b1-4)Gal(b1-4)[Fuc(a1-3)]GlcNAc
# Method in brief: as §1
# [11] = biological target: Fuc(a1-3)[Gal(b1-4)]GlcNAc6S
# Method in brief: as §1
# [12] = biological target: Fuc(a1-3)[Gal3S(b1-4)]Glc6S
# Method in brief: as §1
# [13] = biological target: Fuc(a1-3)[Gal3S(b1-4)]GlcNAc
# Method in brief: as §1
# [14] = biological target: Fuc(a1-3)[Gal3S(b1-4)]GlcNAc6S
# Method in brief: as §1
# [15] = biological target: Fuc(a1-3)[GalNAc(b1-4)]GlcNAc
# Method in brief: as §1
# Fuc(a1-4)GlcNAc = biological target: Fuc(a1-4)GlcNAc
# Method in brief: as §1
# Fuc(b1-3)GlcNAc = biological target: Fuc(b1-3)GlcNAc
# Method in brief: as §1
# Gal(a1-2)Gal = biological target: Gal(a1-2)Gal
# Method in brief: as §1
# Gal(a1-3)Gal = biological target: Gal(a1-3)Gal
# Method in brief: as §1
# Gal(a1-3)Gal(b1-3)GlcNAc = biological target: Gal(a1-3)Gal(b1-3)GlcNAc
# Method in brief: as §1
# Gal(a1-3)Gal(b1-4)Glc = biological target: Gal(a1-3)Gal(b1-4)Glc
# Method in brief: as §1
# Gal(a1-3)Gal(b1-4)GlcNAc = biological target: Gal(a1-3)Gal(b1-4)GlcNAc
# Method in brief: as §1
# [16] = biological target: Gal(a1-3)Gal(b1-4)[Fuc(a1-3)]GlcNAc
# Method in brief: as §1
# Gal(a1-3)GalNAc = biological target: Gal(a1-3)GalNAc
# Method in brief: as §1
# [17] = biological target: Gal(a1-3)[Gal(a1-4)]Gal(b1-4)GlcNAc
# Method in brief: as §1
# Gal(a1-4)Gal(b1-4)Glc = biological target: Gal(a1-4)Gal(b1-4)Glc
# Method in brief: as §1
# Gal(a1-4)Gal(b1-4)GlcNAc = biological target: Gal(a1-4)Gal(b1-4)GlcNAc
# Method in brief: as §1
# Gal(a1-4)GlcNAc = biological target: Gal(a1-4)GlcNAc
# Method in brief: as §1
# Gal(a1-6)Glc = biological target: Gal(a1-6)Glc
# Method in brief: as §1
# Gal(b1-2)Gal = biological target: Gal(b1-2)Gal
# Method in brief: as §1
# Gal(b1-3)Gal = biological target: Gal(b1-3)Gal
# Method in brief: as §1
# Gal(b1-3)Gal(b1-4)GlcNAc = biological target: Gal(b1-3)Gal(b1-4)GlcNAc
# Method in brief: as §1
# Gal(b1-3)GalNAc = biological target: Gal(b1-3)GalNAc
# Method in brief: as §1
# [18] = biological target: Gal(b1-3)GalNAc(b1-3)Gal(a1-4)Gal(b1-4)Glc
# Method in brief: as §1
# [19] = biological target: Gal(b1-3)GalNAc(b1-4)Gal(b1-4)Glc
# Method in brief: as §1
# [20] = biological target: Gal(b1-3)GalNAc(b1-4)[Neu5Ac(a2-3)]Gal(b1-4)Glc
# Method in brief: as §1
binder,measurement,setting,value
B1,glycan array binding signal (z-score),[1],-0.267
same,glycan array binding signal (z-score),[2],-0.266
same,glycan array binding signal (z-score),[3],-0.275
same,glycan array binding signal (z-score),Fuc(a1-3)GlcNAc,5.51
same,glycan array binding signal (z-score),[4],-0.27
same,glycan array binding signal (z-score),[5],-0.261
same,glycan array binding signal (z-score),[6],-0.264
same,glycan array binding signal (z-score),[7],-0.272
same,glycan array binding signal (z-score),[8],-0.254
same,glycan array binding signal (z-score),[9],-0.278
same,glycan array binding signal (z-score),[10],-0.258
same,glycan array binding signal (z-score),[11],-0.264
same,glycan array binding signal (z-score),[12],-0.271
same,glycan array binding signal (z-score),[13],-0.271
same,glycan array binding signal (z-score),[14],-0.276
same,glycan array binding signal (z-score),[15],-0.258
same,glycan array binding signal (z-score),Fuc(a1-4)GlcNAc,2.65
same,glycan array binding signal (z-score),Fuc(b1-3)GlcNAc,-0.055
same,glycan array binding signal (z-score),Gal(a1-2)Gal,-0.275
same,glycan array binding signal (z-score),Gal(a1-3)Gal,-0.267
same,glycan array binding signal (z-score),Gal(a1-3)Gal(b1-3)GlcNAc,-0.269
same,glycan array binding signal (z-score),Gal(a1-3)Gal(b1-4)Glc,-0.264
same,glycan array binding signal (z-score),Gal(a1-3)Gal(b1-4)GlcNAc,-0.275
same,glycan array binding signal (z-score),[16],-0.271
same,glycan array binding signal (z-score),Gal(a1-3)GalNAc,-0.268
same,glycan array binding signal (z-score),[17],-0.274
same,glycan array binding signal (z-score),Gal(a1-4)Gal(b1-4)Glc,-0.278
same,glycan array binding signal (z-score),Gal(a1-4)Gal(b1-4)GlcNAc,-0.274
same,glycan array binding signal (z-score),Gal(a1-4)GlcNAc,-0.27
same,glycan array binding signal (z-score),Gal(a1-6)Glc,-0.274
same,glycan array binding signal (z-score),Gal(b1-2)Gal,-0.271
same,glycan array binding signal (z-score),Gal(b1-3)Gal,-0.279
same,glycan array binding signal (z-score),Gal(b1-3)Gal(b1-4)GlcNAc,-0.269
same,glycan array binding signal (z-score),Gal(b1-3)GalNAc,-0.274
same,glycan array binding signal (z-score),[18],-0.267
same,glycan array binding signal (z-score),[19],-0.273
same,glycan array binding signal (z-score),[20],-0.27
